The values that follow come from the supplement of paper PMC11876631.

± gives the standard deviation of the averaged measurements. Laboratory Escherichia coli strains with one amino-acid change in an essential protein, pooled on minimal glucose agar with carbenicillin or gentamicin at twice the control MIC (plus kanamycin and chloramphenicol for the plasmids), 48 h. Fold change of barcode share against drug-free plates; higher = less susceptible. Active = above 20 in both replicates (the paper's putatively resistant). '<' = one read or none on drug, '>' = one read or none on a drug-free plate. Shares are relative, so most strains fall below 1 when a few take over. Listed are strains with at least 15 reads on both drug-free plates, and hits; most hits rest on fewer reference reads. Replicate rank correlation about 0.5. Edits are read from barcodes.

First the molecules themselves.
B1: tilS L111W (protein)
chain: MTLTLNRQLLTSRQILVAFSGGLDSTVLLHQLVQWRTENPGVALRAIHVHHGLSANADAWVTHCENVCQQWQVPLVVERVQLAQEGLGIEAQARQARYQAFARTLLPGEVWVTAQHLDDQCETFLLALKRGSGPAGLSAMAEVSEFAGTRLIRPLLARTRGELVQWARQYDLRWIEDESNQDDSYDRNFLRLRVVPLLQQRWPHFAEATARSAALCAEQESLLDELLADDLAHCQSPQGTLQIVPMLAMSDARRAAIIRRWLAGQNAPMPSRDALVRIWQEVALAREDASPCLRLGAFEIRRYQSQLWWIKSVTGQSENIVPWQTWLQPLELPAGLGSVQLNAGGDIRPPRADEAVSVRFKAPGLLHIVGRNGGRKLKKIWQELGVPPWLRDTTPLLFYGETLIAAAGVFVTQEGVAEGENGVSFVWQKTLS
B2: tilS L397A (protein)
chain: MTLTLNRQLLTSRQILVAFSGGLDSTVLLHQLVQWRTENPGVALRAIHVHHGLSANADAWVTHCENVCQQWQVPLVVERVQLAQEGLGIEAQARQARYQAFARTLLPGEVLVTAQHLDDQCETFLLALKRGSGPAGLSAMAEVSEFAGTRLIRPLLARTRGELVQWARQYDLRWIEDESNQDDSYDRNFLRLRVVPLLQQRWPHFAEATARSAALCAEQESLLDELLADDLAHCQSPQGTLQIVPMLAMSDARRAAIIRRWLAGQNAPMPSRDALVRIWQEVALAREDASPCLRLGAFEIRRYQSQLWWIKSVTGQSENIVPWQTWLQPLELPAGLGSVQLNAGGDIRPPRADEAVSVRFKAPGLLHIVGRNGGRKLKKIWQELGVPPWLRDTTPLAFYGETLIAAAGVFVTQEGVAEGENGVSFVWQKTLS
B3: suhB V82A (protein)
chain: MHPMLNIAVRAARKAGNLIAKNYETPDAVEASQKGSNDFVTNVDKAAEAVIIDTIRKSYPQHTIITEESGELEGTDQDVQWAIDPLDGTTNFIKRLPHFAVSIAVRIKGRTEVAVVYDPMRNELFTATRGQGAQLNGYRLRGSTARDLDGTILATGFPFKAKQYATTYINIVGKLFNECADFRRTGSAALDLAYVAAGRVDGFFEIGLRPWDFAAGELLVREAGGIVSDFTGGHNYMLTGNIVAGNPRVVKAMLANMRDELSDALKR
B4: tmk V54A (protein)
chain: MRSKYIVIEGLEGAGKTTARNVVVETLEQLGIRDMVFTREPGGTQLAEKLRSLALDIKSVGDEVITDKAEVLMFYAARVQLVETVIKPALANGTWVIGDRHDLSTQAYQGGGRGIDQHMLATLRDAVLGDFRPDLTLYLDVTPEVGLKRARARGELDRIEQESFDFFNRTRARYLELAAQDKSIHTIDATQPLEAVMDAIRTTVTHWVKELDA
B5: tmk V141A (protein)
chain: MRSKYIVIEGLEGAGKTTARNVVVETLEQLGIRDMVFTREPGGTQLAEKLRSLVLDIKSVGDEVITDKAEVLMFYAARVQLVETVIKPALANGTWVIGDRHDLSTQAYQGGGRGIDQHMLATLRDAVLGDFRPDLTLYLDATPEVGLKRARARGELDRIEQESFDFFNRTRARYLELAAQDKSIHTIDATQPLEAVMDAIRTTVTHWVKELDA
B6: rnpA L105P (protein)
chain: MVKLAFPRELRLLTPSQFTFVFQQPQRAGTPQITILGRLNSLGHPRIGLTVAKKNVRRAHERNRIKRLTRESFRLRQHELPAMDFVVVAKKGVADLDNRALSEAPEKLWRRHCRLARGS
B7: rnpA V93D (protein)
chain: MVKLAFPRELRLLTPSQFTFVFQQPQRAGTPQITILGRLNSLGHPRIGLTVAKKNVRRAHERNRIKRLTRESFRLRQHELPAMDFVVVAKKGDADLDNRALSEALEKLWRRHCRLARGS
B8: bioF L104A (protein)
chain: MSWQEKINAALDARRAADALRRRYPVAQGAGRWLVADDRQYLNFSSNDYLGLSHHPQIIRAWQQGAEQFGIGSGGSGHVSGYSVVHQALEEELAEWLGYSRALAFISGFAANQAVIAAMMAKEDRIAADRLSHASLLEAASLSPSQLRRFAHNDVTHLARLLASPCPGQQMVVTEGVFSMDGDSAPLAEIQQVTQQHNGWLMVDDAHGTGVIGEQGRGSCWLQKVKPELLVVTFGKGFGVSGAAVLCSSTVADYLLQFARHLIYSTSMPPAQAQALRASLAVIRSDEGDARREKLAALITRFRAGVQDLPFTLADSCSAIQPLIVGDNSRALQLAEKLRQQGCWVTAIRPPTVPAGTARLRLTLTAAHEMQDIDRLLEVLHGNG
B9: bioF F105W (protein)
chain: MSWQEKINAALDARRAADALRRRYPVAQGAGRWLVADDRQYLNFSSNDYLGLSHHPQIIRAWQQGAEQFGIGSGGSGHVSGYSVVHQALEEELAEWLGYSRALLWISGFAANQAVIAAMMAKEDRIAADRLSHASLLEAASLSPSQLRRFAHNDVTHLARLLASPCPGQQMVVTEGVFSMDGDSAPLAEIQQVTQQHNGWLMVDDAHGTGVIGEQGRGSCWLQKVKPELLVVTFGKGFGVSGAAVLCSSTVADYLLQFARHLIYSTSMPPAQAQALRASLAVIRSDEGDARREKLAALITRFRAGVQDLPFTLADSCSAIQPLIVGDNSRALQLAEKLRQQGCWVTAIRPPTVPAGTARLRLTLTAAHEMQDIDRLLEVLHGNG
B10: bioF L104W (protein)
chain: MSWQEKINAALDARRAADALRRRYPVAQGAGRWLVADDRQYLNFSSNDYLGLSHHPQIIRAWQQGAEQFGIGSGGSGHVSGYSVVHQALEEELAEWLGYSRALWFISGFAANQAVIAAMMAKEDRIAADRLSHASLLEAASLSPSQLRRFAHNDVTHLARLLASPCPGQQMVVTEGVFSMDGDSAPLAEIQQVTQQHNGWLMVDDAHGTGVIGEQGRGSCWLQKVKPELLVVTFGKGFGVSGAAVLCSSTVADYLLQFARHLIYSTSMPPAQAQALRASLAVIRSDEGDARREKLAALITRFRAGVQDLPFTLADSCSAIQPLIVGDNSRALQLAEKLRQQGCWVTAIRPPTVPAGTARLRLTLTAAHEMQDIDRLLEVLHGNG
B11: bioF F105P (protein)
chain: MSWQEKINAALDARRAADALRRRYPVAQGAGRWLVADDRQYLNFSSNDYLGLSHHPQIIRAWQQGAEQFGIGSGGSGHVSGYSVVHQALEEELAEWLGYSRALLPISGFAANQAVIAAMMAKEDRIAADRLSHASLLEAASLSPSQLRRFAHNDVTHLARLLASPCPGQQMVVTEGVFSMDGDSAPLAEIQQVTQQHNGWLMVDDAHGTGVIGEQGRGSCWLQKVKPELLVVTFGKGFGVSGAAVLCSSTVADYLLQFARHLIYSTSMPPAQAQALRASLAVIRSDEGDARREKLAALITRFRAGVQDLPFTLADSCSAIQPLIVGDNSRALQLAEKLRQQGCWVTAIRPPTVPAGTARLRLTLTAAHEMQDIDRLLEVLHGNG
B12: bioF L104D (protein)
chain: MSWQEKINAALDARRAADALRRRYPVAQGAGRWLVADDRQYLNFSSNDYLGLSHHPQIIRAWQQGAEQFGIGSGGSGHVSGYSVVHQALEEELAEWLGYSRALDFISGFAANQAVIAAMMAKEDRIAADRLSHASLLEAASLSPSQLRRFAHNDVTHLARLLASPCPGQQMVVTEGVFSMDGDSAPLAEIQQVTQQHNGWLMVDDAHGTGVIGEQGRGSCWLQKVKPELLVVTFGKGFGVSGAAVLCSSTVADYLLQFARHLIYSTSMPPAQAQALRASLAVIRSDEGDARREKLAALITRFRAGVQDLPFTLADSCSAIQPLIVGDNSRALQLAEKLRQQGCWVTAIRPPTVPAGTARLRLTLTAAHEMQDIDRLLEVLHGNG
B13: accD V121W (protein)
chain: MSWIERIKSNITPTRKASIPEGVWTKCDSCGQVLYRAELERNLEVCPKCDHHMRMTARNRLHSLLDEGSLVELGSELEPKDVLKFRDSKKYKDRLASAQKETGEKDALVVMKGTLYGMPVWAAAFEFAFMGGSMGSVVGARFVRAVEQALEDNCPLICFSASGGARMQEALMSLMQMAKTSAALAKMQERGLPYISVLTDPTMGGVSASFAMLGDLNIAEPKALIGFAGPRVIEQTVREKLPPGFQRSEFLIEKGAIDMIVRRPEMRLKLASILAKLMNLPAPNPEAPREGVVVPPVPDQEPEA
B14: secY I61W (protein)
chain: MAKQPGLDFQSAKGGLGELKRRLLFVIGALIVFRIGSFIPIPGIDAAVLAKLLEQQRGTIWEMFNMFSGGALSRASIFALGIMPYISASIIIQLLTVVHPTLAEIKKEGESGRRKISQYTRYGTLVLAIFQSIGIATGLPNMPGMQGLVINPGFAFYFTAVVSLVTGTMFLMWLGEQITERGIGNGISIIIFAGIVAGLPPAIAHTIEQARQGDLHFLVLLLVAVLVFAVTFFVVFVERGQRRIVVNYAKRQQGRRVYAAQSTHLPLKVNMAGVIPAIFASSIILFPATIASWFGGGTGWNWLTTISLYLQPGQPLYVLLYASAIIFFCFFYTALVFNPRETADNLKKSGAFVPGIRPGEQTAKYIDKVMTRLTLVGALYITFICLIPEFMRDAMKVPFYFGGTSLLIVVVVIMDFMAQVQTLMMSSQYESALKKANLKGYGR
B15: secY I61Q (protein)
chain: MAKQPGLDFQSAKGGLGELKRRLLFVIGALIVFRIGSFIPIPGIDAAVLAKLLEQQRGTIQEMFNMFSGGALSRASIFALGIMPYISASIIIQLLTVVHPTLAEIKKEGESGRRKISQYTRYGTLVLAIFQSIGIATGLPNMPGMQGLVINPGFAFYFTAVVSLVTGTMFLMWLGEQITERGIGNGISIIIFAGIVAGLPPAIAHTIEQARQGDLHFLVLLLVAVLVFAVTFFVVFVERGQRRIVVNYAKRQQGRRVYAAQSTHLPLKVNMAGVIPAIFASSIILFPATIASWFGGGTGWNWLTTISLYLQPGQPLYVLLYASAIIFFCFFYTALVFNPRETADNLKKSGAFVPGIRPGEQTAKYIDKVMTRLTLVGALYITFICLIPEFMRDAMKVPFYFGGTSLLIVVVVIMDFMAQVQTLMMSSQYESALKKANLKGYGR

The data set has as its target Escherichia coli (laboratory strain). Nature of the data set: barcode share on antibiotic plates over drug-free plates; higher = less susceptible. As to conditions: antibiotic: gentamicin; 2× MIC (MIC 0.45 µg/mL). The method, then:
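A pool of E. coli strains, each edited to carry one amino-acid change in an essential protein, was grown for 48 h on minimal glucose agar with or without antibiotic; strain barcodes were sequenced; mean of two replicates.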
In the case of B1, the “fold change of barcode share” value is less than 0.0142.

As to B2, the “fold change of barcode share” value was less than 0.00898.

Take B3: the “fold change of barcode share” value is less than 0.0234.

B4: the “fold change of barcode share” value was less than 0.0215.

As for B5, the “fold change of barcode share” value was less than 0.0173.

Consider B6, for which the “fold change of barcode share” value was determined as 0.0273 ± 0.0057.

With B7, the “fold change of barcode share” value is 0.0198 ± 0.003.

With B8, the “fold change of barcode share” value turned out to be 0.00517 ± 0.0027.

As for B9, the “fold change of barcode share” value was 0.00919 ± 0.002.

Take B10: the “fold change of barcode share” value worked out at 0.00538 ± 0.0013.

On to B11, for which the “fold change of barcode share” value turned out to be 0.00917 ± 0.00026.

In the case of B12, the “fold change of barcode share” value was determined as 0.0101 ± 0.0039.

Take B13: the “fold change of barcode share” value was found to be 0.00938 ± 0.0036.

As for B14, the “fold change of barcode share” value was less than 0.0176.

Consider B15, for which the “fold change of barcode share” value is less than 0.0171.
